Source: the supplement of paper PMC4967469
By IC50 is meant the dose at which the fit gives 50% viability; a limit (>, <) means that the fit lies beyond the doses tested. AUC is the area under the same curve over the 256-fold range up to the top dose, as a fraction: 1 means no effect, lower means more sensitive. For some assays here: A top dose marked as inferred was calculated from the reported fits. For some assays here: Drugs with an entry number were screened twice under separate entries, and the two screens often disagree.

How the values were obtained:
Test in all cases: Viability of human cancer cell lines after 72 h of drug (GDSC screen)
NSC-207895 = compound: CN1CCN(c2ccc([N+](=O)[O-])c3no[n+]([O-])c23)CC1 [NSC-207895]; details: top dose 20 µM; top dose inferred
Description: (§1)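 Human cancer cell lines in 384-well plates, medium with 10% serum, drug for 72 h over a 256-fold dose range (nine 2-fold or five 4-fold steps up to the top dose). Adherent lines were fixed and stained with the nucleic acid dye Syto60, suspension lines read with resazurin; signal relative to control wells, capped at 0 and 100%. One two-parameter sigmoid per drug and line, fitted in a mixed model over all curves with the slope shared within a line.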

Cyclopamine = compound: CC1=C2C[C@H]3[C@@H](CC=C4C[C@@H](O)CC[C@@]43C)[C@@H]2CC[C@]12O[C@@H]1C[C@H](C)CN[C@H]1[C@H]2C [Cyclopamine]; details: top dose 16 µM; top dose inferred
Description: as §1

JNK Inhibitor VIII = compound: CCOc1nc(NC(=O)Cc2cc(OC)ccc2OC)cc(N)c1C#N [JNK Inhibitor VIII]; details: top dose 10 µM; top dose inferred
Description: as §1

Docetaxel = compound: CC(=O)O[C@@]12CO[C@@H]1C[C@H](O)[C@@]1(C)C(=O)[C@H](O)C3=C(C)[C@@H](OC(=O)[C@H](O)[C@@H](NC(=O)OC(C)(C)C)c4ccccc4)C[C@@](O)([C@@H](OC(=O)c4ccccc4)[C@H]21)C3(C)C [Docetaxel]; details: top dose 0.0125 µM
Description: as §1

AMG-706 = compound: CC1(C)CNc2cc(NC(=O)c3cccnc3NCc3ccncc3)ccc21 [AMG-706]; details: top dose 2 µM; top dose inferred
Description: as §1

CGP-60474 = compound: OCCCNc1cc(-c2ccnc(Nc3cccc(Cl)c3)n2)ccn1 [CGP-60474]; details: top dose 0.256 µM; top dose inferred
Description: as §1

FTI-277 = compound: COC(=O)[C@H](CCSC)NC(=O)c1ccc(NC[C@@H](N)CS)cc1-c1ccccc1 [FTI-277]; details: top dose 1.024 µM; top dose inferred
Description: as §1

PHA-665752 = compound: Cc1[nH]c(/C=C2\C(=O)Nc3ccc(S(=O)(=O)Cc4c(Cl)cccc4Cl)cc32)c(C)c1C(=O)N1CCC[C@@H]1CN1CCCC1 [PHA-665752]; details: top dose 2 µM
Description: as §1

SB-715992 = compound: Cc1ccc(C(=O)N(CCCN)[C@@H](c2nc3cc(Cl)ccc3c(=O)n2Cc2ccccc2)C(C)C)cc1 [SB-715992]; details: top dose 0.128 µM; top dose inferred
Description: as §1

YM155 = compound: COCC[n+]1c2c(n(Cc3cnccn3)c1C)C(=O)c1ccccc1C2=O [YM155]; details: top dose 5.12 µM
Description: as §1

JNJ-26854165 = compound: c1ccc2c(CCNc3ccc(Nc4ccncc4)cc3)c[nH]c2c1 [JNJ-26854165]; details: top dose 10 µM
Description: as §1

Belinostat = compound: O=C(/C=C/c1cccc(S(=O)(=O)Nc2ccccc2)c1)NO [Belinostat]; details: top dose 20 µM; top dose inferred
Description: as §1

JQ1 = compound: Cc1sc2c(c1C)C(c1ccc(Cl)cc1)=N[C@@H](CC(=O)OC(C)(C)C)c1nnc(C)n1-2 [JQ1]
Description: as §1

OSI-906 = compound: C[C@]1(O)C[C@@H](c2nc(-c3ccc4ccc(-c5ccccc5)nc4c3)c3c(N)nccn32)C1 [OSI-906]; details: top dose 2.56 µM; top dose inferred
Description: as §1

[1] = top dose 1 µM, screen: GDSC drug entry 1218, top dose inferred
[2] = top dose 2.56 µM, screen: GDSC drug entry 163

| Cell Line | AUC (NSC-207895) | IC50 (NSC-207895) | AUC (Cyclopamine) | IC50 (Cyclopamine) | AUC (JNK Inhibitor VIII) | IC50 (JNK Inhibitor VIII) | AUC (Docetaxel) | IC50 (Docetaxel) | AUC (AMG-706) | IC50 (AMG-706) | AUC (CGP-60474) | IC50 (CGP-60474) | AUC (FTI-277) | IC50 (FTI-277) | AUC (PHA-665752) | IC50 (PHA-665752) | AUC (SB-715992) | IC50 (SB-715992) | AUC (YM155) | IC50 (YM155) | AUC (JNJ-26854165) | IC50 (JNJ-26854165) | AUC (Belinostat) | IC50 (Belinostat) | AUC (JQ1; [1]) | IC50 (JQ1; [1]) | AUC (JQ1; [2]) | IC50 (JQ1; [2]) | AUC (OSI-906) | IC50 (OSI-906) |
| --- | --- | --- | --- | --- | --- | --- | --- | --- | --- | --- | --- | --- | --- | --- | --- | --- | --- | --- | --- | --- | --- | --- | --- | --- | --- | --- | --- | --- | --- | --- |
| KINGS-1 (glioma, adherent) | 0.929 | > 20 µM | 0.951 | > 16 µM | 0.971 | > 10 µM | 0.57 | 1.3 nM | 0.912 | > 2000 nM | 0.757 | 120 nM | 0.964 | > 1020 nM | 0.567 | 204 nM | 0.885 | > 128 nM | 0.088 | < 20 nM | 0.857 | > 10 µM | 0.399 | 594 nM | 0.958 | > 1000 nM | 0.957 | > 2560 nM | 0.93 | > 2560 nM |
| KM12 (large intestine, adherent) | 0.963 | > 20 µM | 0.965 | > 16 µM | 0.971 | > 10 µM | 0.756 | 4.6 nM | 0.985 | > 2000 nM | 0.81 | 149 nM | 0.947 | > 1020 nM | 0.92 | > 2000 nM | 0.9 | > 128 nM | 0.185 | 32.7 nM | 0.929 | > 10 µM | 0.455 | 933 nM | 0.984 | > 1000 nM | 0.713 | 677 nM | 0.985 | > 2560 nM |
| KNS-81-FD (glioma, adherent) | 0.677 | 4.69 µM | 0.946 | > 16 µM | 0.978 | > 10 µM | 0.752 | 5.5 nM | 0.98 | > 2000 nM | 0.838 | > 256 nM | 0.965 | > 1020 nM | 0.936 | > 2000 nM | 0.971 | > 128 nM | 0.042 | < 20 nM | 0.857 | > 10 µM | 0.468 | 994 nM | 0.93 | > 1000 nM | 0.953 | > 2560 nM | 0.979 | > 2560 nM |
| LB373-MEL-D (melanoma, adherent) | 0.899 | > 20 µM | 0.981 | > 16 µM | 0.989 | > 10 µM | 0.88 | 12.4 nM | 0.958 | > 2000 nM | 0.708 | 61 nM | 0.962 | > 1020 nM | 0.99 | > 2000 nM | 0.968 | > 128 nM | 0.027 | < 20 nM | 0.99 | > 10 µM | 0.423 | 775 nM | 0.989 | > 1000 nM | 0.857 | 2010 nM | 0.936 | > 2560 nM |
| LU-134-A (small cell lung carcinoma, suspension) | 0.857 | 18 µM | 0.986 | > 16 µM | 0.987 | > 10 µM | 0.917 | > 12.5 nM | 0.987 | > 2000 nM | 0.791 |  | 0.971 | > 1020 nM | 0.968 | > 2000 nM | 0.858 | 116 nM | 0.033 | < 20 nM | 0.974 | > 10 µM | 0.329 | 404 nM | 0.848 | 817 nM | 0.715 | 677 nM | 0.892 | > 2560 nM |
| LU-139 (small cell lung carcinoma, suspension) | 0.759 | 8.84 µM | 0.961 | > 16 µM | 0.978 | > 10 µM | 0.82 | 9.98 nM | 0.951 | > 2000 nM | 0.81 | 184 nM | 0.982 | > 1020 nM | 0.98 | > 2000 nM | 0.642 | 22.1 nM | 0.039 | < 20 nM | 0.9 | > 10 µM | 0.361 | 463 nM | 0.918 | > 1000 nM | 0.803 | 1710 nM | 0.981 | > 2560 nM |
| NB13 (neuroblastoma, adherent) | 0.768 | 6.65 µM | 0.99 | > 16 µM | 0.938 | > 10 µM | 0.586 | 1.3 nM | 0.985 | > 2000 nM | 0.766 | 83.9 nM | 0.986 | > 1020 nM | 0.975 | > 2000 nM | 0.969 | > 128 nM | 0.049 | < 20 nM | 0.944 | > 10 µM | 0.153 | 128 nM | 0.99 | > 1000 nM | 0.85 | 1610 nM | 0.883 | 2190 nM |
| NCI-H211 (small cell lung carcinoma, adherent) | 0.744 | 6.09 µM | 0.961 | > 16 µM | 0.979 | > 10 µM | 0.905 | > 12.5 nM | 0.974 | > 2000 nM | 0.856 | 198 nM | 0.979 | > 1020 nM | 0.98 | > 2000 nM | 0.615 | 16.4 nM | 0.026 | < 20 nM | 0.987 | > 10 µM | 0.142 | 99.5 nM | 0.859 | 796 nM | 0.724 | 676 nM | 0.893 | > 2560 nM |
